Data on 57 sequences can be found in the supplement of paper PMC11417369.

The other results are listed elsewhere or left out.

The subject of this assay is PfSIP2 AP2 domain 1 (GST-tagged). Kind of assay: gcPBM binding intensity (ln(normalized median fluorescence intensity)); higher = stronger DNA binding. The gist of the method:
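In this array assay, P. falciparum DNA-binding domains with a GST tag, expressed in E. coli, were applied for 1 h to primer-extended double-stranded 36-bp intergenic genomic probes and negative controls on an Agilent 4 × 180k array. Bound protein was visualised with Alexa488 anti-GST antibody at 488 nm. Binding intensity is the highest Masliner-normalised natural-log median intensity across replicate spots of either probe orientation.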
Turning to “TATCTATATGGGAACACACTCATAAATATATATCTA [CACACA_site4815]”, the “gcPBM binding intensity (ln)” value was 7.04.

Take “AAAATAAATAAATACACACACACGAATATATATATA [CACACA_site1683]”: the “gcPBM binding intensity (ln)” value was determined as 8.88.

For the sequence “TTTTAAAAATAATAAATAAATAAAATTGAAGTTCCA [CACACA_negctrl_site305]”, the “gcPBM binding intensity (ln)” value came to 6.78.

As to “AAAATTTTTAAATATTGTACTATTTATTTTTAGCAT [XGTACX_site6190]”, the “gcPBM binding intensity (ln)” value is 6.93.

In the case of “TATATATATATATTTACACACATTCATATAAATTCA [CACACA_site3532]”, the “gcPBM binding intensity (ln)” value amounted to 9.11.

For “GCCTACAGACTTAGTAGTACATGAGAAGATATATAT [XGTACX_site2269]”, the “gcPBM binding intensity (ln)” value was found to be 7.09.

As for “AATATGAACGGACACACACACACAAAAAAAAAAAAA [CACACA_site5154]”, the “gcPBM binding intensity (ln)” value amounted to 7.03.

Regarding “TATTATTTTTCCTAATGTACAAAATATATATTTTTA [XGTACX_site2727]”, the “gcPBM binding intensity (ln)” value is 7.33.

On to “TTTGAATATATAAATATGCACACTTCTATTATAAAT [CACACA_site3359]”, for which the “gcPBM binding intensity (ln)” value came to 9.99.

Turning to “TTCTTATATAAATACACACACAAAATATCTACAATG [CACACA_site4568]”, the “gcPBM binding intensity (ln)” value turned out to be 7.12.

For “AAAAAAATAAAAAGGAACGTCTATAGTTAATTTATT [CACACA_negctrl_site919]”, the “gcPBM binding intensity (ln)” value came to 6.85.

For “AATCGATTGGATAATATTTTTTCTCTTAATTTTTTG [GTGCAC_negctrl_site165]”, the “gcPBM binding intensity (ln)” value stood at 6.42.

For “TATATTAGAAGAAATTCACACATTCATGTAATCTTA [CACACA_site4706]”, the “gcPBM binding intensity (ln)” value worked out at 6.49.

With “ATGTTGCACAATGTTACACACACAATATATATCGTT [CACACA_site4833]”, the “gcPBM binding intensity (ln)” value came to 7.82.

With “TTTTTTTTGTTGTTGTTGCACTTGATAGGAATGGCT [GTGCAC_site9701]”, the “gcPBM binding intensity (ln)” value was 8.35.

“AAAAAAAACAGACACACACACAAATACATACACAAA [CACACA_site705]”: the “gcPBM binding intensity (ln)” value was 7.07.

As for “CCATTTACAAAAAGGAGTACACAAATATATGTTTAA [XGTACX_site649]”, the “gcPBM binding intensity (ln)” value amounted to 6.99.

For “TACTTACAGATAATAACACACAAGAAAAAAATAAAA [CACACA_site4716]”, the “gcPBM binding intensity (ln)” value was 6.94.

As to “AAAAAACAGACATACACACACACACGGATATTTATA [CACACA_site7570]”, the “gcPBM binding intensity (ln)” value was 6.96.

For “TACAAATATGGACACACACACATATTTATATTTATA [CACACA_site6420]”, the “gcPBM binding intensity (ln)” value came out at 7.12.

Take “ATATAAATGTATATGACACACATATATATATATATA [CACACA_site889]”: the “gcPBM binding intensity (ln)” value turned out to be 9.42.

“AATATTTATGGGTGCACACAAACATACAGATATATA [CACACA_site5810]”: the “gcPBM binding intensity (ln)” value came out at 12.1.

Consider “TATATATATATCAAGTGTACTTGTGTTTGTAATATT [XGTACX_site8854]”, for which the “gcPBM binding intensity (ln)” value was found to be 8.95.

For TTAAAATAGATATTAGTGCAAAAAAAAAAAAATAAA, the “gcPBM binding intensity (ln)” value amounted to 8.25.

With “TTTTGATATAAATATTAGATTAATAAATAAAAAAAT [CACACA_negctrl_site1635]”, the “gcPBM binding intensity (ln)” value worked out at 7.02.

As to “ATAATATCATAATATTGTACATATTTTATTTTAAAT [XGTACX_site1115]”, the “gcPBM binding intensity (ln)” value was determined as 6.94.

For the sequence TTTTTTGTTTGAATGGTGCATTTTGTAATTATATTT, the “gcPBM binding intensity (ln)” value amounted to 10.6.

“CAACTAACATATATTCAACACACATATACCTTCAAC [CACACA_site8988]”: the “gcPBM binding intensity (ln)” value worked out at 7.08.

For the sequence “TAACATATTATATATACATGCATACGTGAACTAATC [TGCATGCA_site888]”, the “gcPBM binding intensity (ln)” value was determined as 7.01.

Regarding “ATTGTATATGTATATGCACACAATATATGTACTTAT [CACACA_site2611]”, the “gcPBM binding intensity (ln)” value is 7.99.

With “GATATATTATTTGAATGTACATATTATATTTATATT [XGTACX_site907]”, the “gcPBM binding intensity (ln)” value stood at 7.01.

On to “GTTAGAATTGTTAGGTGGTCAAAAAGGAGAAAAAAA [XGTACX_site2086]”, for which the “gcPBM binding intensity (ln)” value turned out to be 7.33.

Take “TTTTTTTAGTTAATTAAACACACAAAAAAAAAAATA [CACACA_site9301]”: the “gcPBM binding intensity (ln)” value came out at 6.88.

Turning to “TTTTTAATTAACTTTTTATAAATAAATAAAAATATA [GTGCAC_negctrl_site334]”, the “gcPBM binding intensity (ln)” value came to 6.98.

As to “TTCACATACAGAAACACACACATATTTATAAATTAA [CACACA_site7699]”, the “gcPBM binding intensity (ln)” value turned out to be 7.17.

As to “AAAAGAAAATTAAATTAACACACATAAATATATATA [CACACA_site8482]”, the “gcPBM binding intensity (ln)” value came to 7.27.

With “ATTATTTAATTTTATTAAAAAAAAACAAATTAACAG [GTGCAC_negctrl_site152]”, the “gcPBM binding intensity (ln)” value amounted to 7.29.

In the case of “TTATTTTATTTTGAAGCATGCTTTTTGCTGTGATAA [TGCATGCA_site278]”, the “gcPBM binding intensity (ln)” value was determined as 6.76.

On to “AAATAATATTTATACACACACACATATTTATATACA [CACACA_site6403]”, for which the “gcPBM binding intensity (ln)” value was 7.02.

For the sequence “TTATGCGTTTGCAAAAGTACATATCTATTATTTTTA [XGTACX_site7609]”, the “gcPBM binding intensity (ln)” value is 6.93.

As to “GGTCTTATTTTTAGTAGTACAAATATAATATACATA [XGTACX_site6483]”, the “gcPBM binding intensity (ln)” value was 7.45.

With “TTTTTTTTTTTTTGTTGTACCCATCATATATACATA [XGTACX_site4342]”, the “gcPBM binding intensity (ln)” value came to 7.11.

In the case of “TATAAAAATATTTAATGTACGAATCTGTGATATATC [XGTACX_site7881]”, the “gcPBM binding intensity (ln)” value was 6.88.

As to “CTAAACAGAATTATCACACATATAAATATAAACATA [CACACA_site4560]”, the “gcPBM binding intensity (ln)” value is 6.86.

As to ATATATTACATATGTGTGCACGTTCCAAAATTTTTA, the “gcPBM binding intensity (ln)” value stood at 9.53.

With “TTTTCATGTTGTAAAGCATGCTTTACTCATAAAAAA [TGCATGCA_site917]”, the “gcPBM binding intensity (ln)” value was determined as 6.86.

“ATTATTAAAAGAAGAAGTACTTATATATTAATATTA [XGTACX_site5227]”: the “gcPBM binding intensity (ln)” value was determined as 6.94.

In the case of “AAAATACACGCATACACACACACACGCGCACATATA [CACACA_site6448]”, the “gcPBM binding intensity (ln)” value worked out at 7.29.

For the sequence “ATGTCTATATATTAAGGTACACATATATGCTATTCA [XGTACX_site6008]”, the “gcPBM binding intensity (ln)” value is 7.03.

Turning to “ATATTAATTTTTATTACACACTCTCAATTTTTATTT [CACACA_site58]”, the “gcPBM binding intensity (ln)” value came out at 7.08.

Consider “AAAATATACATAAACACACACAAAACGTTTAAGAAA [CACACA_site1071]”, for which the “gcPBM binding intensity (ln)” value stood at 7.1.

With “GTTTAACTGTTTTATACACACAATGTATCCAATAAA [CACACA_site5612]”, the “gcPBM binding intensity (ln)” value was 7.

With “TTTTAGTTAATTCATGCATGTAAAGTTTTATTTATA [TGCATGCA_site252]”, the “gcPBM binding intensity (ln)” value was found to be 6.83.

For the sequence “AAAAAAAAAAAAAAAGTACACACTTTTGCGTACATG [CACACA_site3097]”, the “gcPBM binding intensity (ln)” value turned out to be 7.5.

Take “TTTATGCACGCGTGCACACACATATGAAAAAAGGTA [CACACA_site3315]”: the “gcPBM binding intensity (ln)” value is 10.4.

Take “TATGTTTAAATATATTGTACGCACGTATGTTTTTAA [XGTACX_site1108]”: the “gcPBM binding intensity (ln)” value is 7.01.

Take “AATACCTTTTAATAATGTACAAACAAAAATTAGAGA [XGTACX_site6850]”: the “gcPBM binding intensity (ln)” value came out at 7.11.
